# Test results reported in patent US10647664B2, “Substituted hydroxamic acid compounds” (Duke University, priority 2013, dated 2020).
# Key:
# E. coli W3110NG = assay: MIC, E. coli W3110NG; assay type: cell-based; conditions: Escherichia coli
# Description: MICs are determined according to the NCCLS protocol using 96-well plates. Briefly, diluted bacterial cells (10^6 cells/mL) are added into each well of the 96-well plates containing LB medium with 5% DMSO and various concentrations of the compound of disclosure. After incubation of the plates for 22 hours at 37° C., [4,5-dimethylthiazol-2-yl]-2,5-diphenyltetrazolium bromide solution (MTT) is added (final concentration, 0.2 mg/mL) and incubated at 37° C. for another 3 hrs. MIC is determined as the lowest concentration of an antibiotic that prevented color change (yellow to purple).
# [1] = system: modified E. coli with the native lpxC gene replaced by that of P. aeruginosa (W3110PA); assay: MIC, E. coli W3110PA; conditions: Escherichia coli, read-out: MIC E. coli W3110PA, E. coli W3110PA (P. aeruginosa lpxC)
# Description: […] . This PCR product is gel purified and then electroporated into E. coli DY330 cells, which carry λ-red recombinases, using a Bio-Rad Gene Pulser II set to 2.5 kV, 25 μF, and 400Ω. While DY330 cannot survive on the LB/agar plate supplemented with 15 μg/mL of the compound of disclosure, cells wherein E. coli lpxC replaced with P. aeruginosa lpxC can survive on this media. Transformants are therefore selected directly using the compound of disclosure without introducing a closely linked resistance cassette for a different antibiotic marker. Genomic DNA from resistant colonies is isolated, and the region around lpxC amplified with primers 300-up-lpxC (5′-[…] TG-3′) and 300-down-lpxC (5′-[…] A-3′), and sequenced with primers paLpxC-361-5′ (5′-[…] AA-3′) and paLpxC-581-3′ (5′-[…] CA-3′). […]
# MICs are determined according to the NCCLS protocol using 96-well plates. […] MIC is determined as the lowest concentration of an antibiotic that prevented color change (yellow to purple).
# The antibiotic activities of several exemplary compounds useful in the methods of the disclosure are evaluated by measurements of minimum inhibitory concentrations (MICs) using wild-type E. coli (W3110), P. aeruginosa (PAO1), F. novicida U112 (FNU112), and modified E. coli strains with the native lpxC gene replaced by that of R. leguminosarum (W3110RL) or P. aeruginosa (W3110PA).
SMILES,MIC (E. coli W3110NG),MIC [1]
"CC(CCn1ccc(C#Cc2ccccc2)cc1=O)(C(=O)NO)S(C)(=O)=O (stereo not drawn) [Example 30, N-hydroxy-2-methyl-2-(methylsulfonyl)-4-(2-oxo-4-(phenylethynyl)pyridin-1 (2H)-yl)butanamide]",2.5 µg/mL,< 0.78 µg/mL
"CC(NC(=O)c1ccc(C#Cc2ccc(CN3CCOCC3)cc2)cc1)(C(=O)NO)C(C)(O)C(F)F (stereo not drawn) [Example 2, N-(4,4-difluoro-3-hydroxy-1-(hydroxyamino)-2,3-dimethyl-1-oxobutan-2-yl)-4-((4-(morpholinomethyl)phenyl)ethynyl)benzamide]",,50 µg/mL
